Laboratory results taken from the supplement of paper PMC11417369.
The other results are listed elsewhere or left out.

test system: PF3D7_0420300 AP2 domain 1 (GST-tagged); experiment: gcPBM binding intensity (ln(normalized median fluorescence intensity)); higher = stronger DNA binding
Procedure, shortened: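 Binding intensity values are the highest Masliner-normalised natural-log median intensity among replicate spots of either probe orientation. The binding step lasted 1 h in 1× PBS with 1% milk, 0.2 mg/ml BSA, 0.5% salmon testes DNA and 0.03% Triton X-100, using GST-tagged P. falciparum DNA-binding domains expressed in E. coli on an Agilent 4 × 180k array of primer-extended double-stranded 36-bp intergenic genomic probes plus negative controls. Alexa488 anti-GST antibody and a 488 nm scan detected bound protein.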

| Sequence | gcPBM binding intensity (ln) |
| --- | --- |
| TGTAGAATTTCCTGAACATGCAAATAATTTTCCTTA [TGCATGCA_site881] | 8.98 |
| AGGTCTGTTTTATATTGTACATAAAAAGTGCACATG [XGTACX_site4529] | 9.53 |
| TTTTTTACATCCATAAAACTTTTTCTCTTTTAAAAT [CACACA_negctrl_site1745] | 8.94 |
| AGAGAGAAAGGTATAACATGCGATAAATTTTAGAAG [TGCATGCA_site37] | 9.35 |
| ATATAGTTCGTTTATACACACATGATAAGATATTTA [CACACA_site1947] | 9.57 |
| AAATCACTTTTTAAGTGTACTTGGTCTTTCTCATTT [XGTACX_site7221] | 9.28 |
| TTTTCTTGATTTTGTAGTACATTTTTACGATATTTT [XGTACX_site63] | 9.47 |
| ATGTAAATTATTATTCTATTGTTATATACACAATAT [XGTACX_negctrl_site332] | 9.32 |
| CACATACATATATACACACACAAAATAATAAAATAA [CACACA_site2308] | 10 |
| AAAATTATATTTTATAGAAATTTAAATAAATATATA [GTGCAC_negctrl_site199] | 8.77 |
| TTTTTAAAAATAACAGAAAAGAATTACAGATTTTTT [XGTACX_negctrl_site472] | 8.99 |
| TACAAATATAGATGCACACACATATAGGTATATGTG [CACACA_site7439] | 9.64 |
| TATATATAATTATAAGAACACACATATATATATATA [CACACA_site8786] | 9.45 |
| AATGATACTTAGGGGCATGTCTCTGGGGGCATAACC [CACACA_negctrl_site591] | 9.45 |
| ATATATTTCTGTCAAGCACACATAATATTAATATAT [CACACA_site7993] | 9.35 |
| CATATTATATTTTCATGTACACATAACATATTTATA [XGTACX_site4787] | 9.37 |
| GTTATAAACAAAATAAATATATGAATATATAATAAT [XGTACX_negctrl_site96] | 9.28 |
| ATATAGTAAATGTTCACACATACAAATATATATATA [CACACA_site5518] | 9.33 |
| AAGTTTTCTTAAAGCTGTACTTTTTAAAAATAAAAT [XGTACX_site7716] | 8.73 |
| TTAAAAATATTATGTACACACATTTTAGATATTTGT [CACACA_site1846] | 9.45 |
| TAAATATATATATATTGTACAAAACAAATGTGAATT [XGTACX_site696] | 9.45 |
| TCCTAATATTTGTCAAATTTCAAAATAAATAAAATG [XGTACX_negctrl_site540] | 8.84 |
| TAATTAAAATCATATACACACCCATATATATATATA [CACACA_site8524] | 9.45 |

| Sequence | gcPBM binding intensity (ln) |
| --- | --- |
| TAAAAGGGGATATATGAACACACAAAAAAAAAATAT [CACACA_site8940] | 9.66 |
| TATATATATATGTACACACACACATATAAATAAATA [CACACA_site443] | 9.9 |
| CATATTTTTTCTTAAACACACACATATATATATATA [CACACA_site8920] | 9.61 |
| TTAAAAAAAAAAAAAAGTACATAAGTATATATAATA [XGTACX_site4295] | 9.17 |
| ATATTAAGTTTTATTACACACTCTCAATTTTTATTT [CACACA_site4206] | 9.67 |
| TAAATGTTTCTCAAAAGTACACATGTGATATTTCTT [XGTACX_site2065] | 9.2 |
| TAATTTCTTATGTATTGTACAAATAATATATTATTT [XGTACX_site3066] | 9.28 |
| ATTCAAAATAATCACAGTACACATGAGATTATCTTT [XGTACX_site2197] | 9.17 |
| TTAATATGGAAATGTTGTACATTTCTTGAAGCATTC [XGTACX_site525] | 9.03 |
| ACTTCATAAACATTTTGTACGTATGTATCTTTTTAT [XGTACX_site7012] | 9.49 |
| TTATTGAAAAACATAATATCTAAGAGGGTAATATAT [GTGCAC_negctrl_site599] | 9.33 |
| TGGAAACAAAAACACACACACAAAAAAAAAAAAAAA [CACACA_site3209] | 9.68 |
| TGTATTATTAATATTTGTACGTAATAATAAAAACAT [XGTACX_site3716] | 9.26 |
| TCCTTAGAAATATTGATCATAAACTGGAAAGGTATA [XGTACX_negctrl_site354] | 9.06 |
| GAAATATATAAATTGACACACACATATATACATATA [CACACA_site8323] | 9.85 |
| TTTAACATAAATTAAACACACAATAAAATACATTAA [CACACA_site6699] | 9.54 |
| CATAAATACAGATATACACACATATATATATATATA [CACACA_site4528] | 9.45 |
| GAGGTACATTAATTAGTGCATTAAAATTTTTATCCT | 9.17 |
| ATAATACATATAGAAGGTACACTATTATTTTCCTGA [XGTACX_site903] | 9.42 |
| ATTATCCATGCATTTACACACACACTAATAAAAATT [CACACA_site9358] | 9.94 |
| TTTTAATAAACAAAACGTACACATTATTATTATATA [XGTACX_site335] | 9.19 |
| TTTGTAGTTTGCACATGTACACATTTCAAAATAAAG [XGTACX_site7568] | 9.1 |
| AATATATACATATATTGTACATATAGTTTCTTGCAT [XGTACX_site7871] | 9.31 |

| Sequence | gcPBM binding intensity (ln) |
| --- | --- |
| AGAGAGAAAGTTATAACATGCAACAATTTTTAGAAC [TGCATGCA_site96] | 9.35 |
| TTTTTTTCTTGTTTTAAATAATATACTGGAAAAAAA [CACACA_negctrl_site585] | 8.61 |
| TTTTTTTTTTTGTGGGTGCGTTTATAAAAACAGGAA | 9.1 |
| TTTCCATATTGTGGATGTACGTTTTGAGGTTTTTAC [XGTACX_site3362] | 9.28 |
| ATTTATCCAAAAAAATGTACAGGATAATTTGTTCAT [XGTACX_site7737] | 9.07 |
| TATTATGCCTTTAATATACACACTAATATTTTTTTG [CACACA_site2045] | 9.56 |
| TATAAAAATTAATATTGTACGTTTTATGAAAATAAA [XGTACX_site8237] | 8.89 |
| CATAATACCTATAACACACACAATTATACATAAACT [CACACA_site7506] | 9.9 |
| GGGTTCAATTTAAAGAGTACAAAAAATGTAGGTCAT [XGTACX_site5290] | 9.24 |
| ATATATATATATATTTGTACGTATTATGTATTTTTT [XGTACX_site3530] | 9.44 |
| AATACAATAAAATAGTGTACATATATATTATGTATA [XGTACX_site8258] | 9.37 |
| GAATAAATTAAAAACGCATGTATCATTACTACATAA [TGCATGCA_site111] | 9.18 |
| TTTATATTATACTATACATGCATATAATAAAGGTCA [TGCATGCA_site934] | 9.08 |
| TTAAAATATGATATATGTACATAATTACTAAAAACA [XGTACX_site276] | 9.22 |
| ATTTTATTTTTTTGTGATAATTGATTTATATATTGT [TGCATGCA_negctrl_site563] | 9.4 |
| AATAGAATAATCCTTACACACACACGCGCACGAATA [CACACA_site6365] | 10.1 |
| ATTATTTCTTTGTGATGTACAAATAAACATGTTGGT [XGTACX_site5636] | 9.21 |
| TATATATTACATTGTTGTACATATATATTATATATA [XGTACX_site60] | 9.19 |
| ATATATATTTCTTAAAGTACATAATAATAAAAATAT [XGTACX_site8981] | 9.16 |
| ATAATTATTAAGAGAACATGCAAAATATATATGTTT [TGCATGCA_site503] | 9.38 |
| AAAGCACCCAGGCACACACACAAAGGAAAAGAAAAA [CACACA_site232] | 9.83 |
| ATTTTTATTCTTATTACACACCTAAATATAAAATAT [CACACA_site2064] | 9.48 |
| TTTATATTTATATTGGGTACATAAAAAGCTTGAAAT [XGTACX_site8248] | 8.94 |

| Sequence | gcPBM binding intensity (ln) |
| --- | --- |
| ATAAATATGGAGCACACACACATAAACATACATATA [CACACA_site421] | 10.1 |
| TGTGTTCATATATGCACACGCATATATATTATTGTT [CACACA_site3822] | 9.51 |
| TGTGTCCATTGAACAGTGCAATAAAAACTTTTACAT | 9.15 |
| AAAGGGGAAAATATTATACATATAATAAATCCGTAT [XGTACX_negctrl_site355] | 9.24 |
| AAAAAAAAAAAACACACACACACACCGATACATACA [CACACA_site8849] | 10.3 |
| TTTTTTTTTTTGTGGTGTACCTTTATTTCCTTTTAG [XGTACX_site6934] | 9.43 |
| ATTCATTTTATTTTTTCACACACACCGATATATATA [CACACA_site9097] | 10 |
| ACCCCCATATTCTTTTTACACACTTGAATAAAAAAT [CACACA_site8319] | 9.66 |
| ATTTTTCAATTATGTAGTACATTGATATTTTCATTT [XGTACX_site5369] | 9.32 |
| TTTATTTATTAATACACACACACACCCAGACAAAAT [CACACA_site4292] | 10.2 |
| TATCTTTTTACAATAGTGCATATGTTATCATTAATA [GTGCAC_site9489] | 9.23 |
| ATTTGCCCATTTAATTAACACACAAATGTTTATATT [CACACA_site8145] | 9.64 |
| AGATATATAAATATTACACACTATATATCTATTTAT [CACACA_site6466] | 9.44 |
| GTATGCATTATATACACACATACATTTATATATTCT [CACACA_site115] | 9.68 |
| ATTATATACATTTTAGTGCATTACATAATAATATAA [GTGCAC_site9836] | 9.14 |
| TTTCTTTTTTGATGCGTGCACATTTGTTTATTTTTC [GTGCAC_site9792] | 9.49 |
| ACTATTTAATATAGGGTGCAACTTTTTCAAGTAAAT [GTGCAC_site9853] | 9.07 |
| AGTAATAAAAGTAGAAGTACAATACTTCAAAGATAT [XGTACX_site8562] | 9.44 |
| TATTTCAAAATATGGGTGCAGTTCTTCATGATATAT [GTGCAC_site9658] | 9.22 |
| GTTCTAAAAGTTAATGCATGTTATAAGTTTCCCTCT [TGCATGCA_site94] | 9.31 |
